Results as given in PubChem BioAssay AID485297 (National Center for Advancing Translational Sciences (NCATS), 2010).
The campaign covered roughly 320,000 compounds. About 9,100 (2.8%) were called active. The inconclusive results got no clear call from the source; some entries with a clear call stand among them for comparison. Calls come from the whole dose curve; as a rule, active = well fitted activation curve with a large enough effect; inconclusive = small, poorly fitted or top-dose-only effect; inactive = no such curve, though single readings can be large or run the other way. No potency is given beside an inconclusive call; the fits are too rough.

Experiment: qHTS Assay for Rab9 Promoter Activators; note: nearly all actives have a fitted effect of over 60% in size; for activation, negative = inhibition: % of control where 0% means no effect
Details: Huh7 Rab9 promoter-luciferase reporter, luminescence, 24 h; series mostly up to 9.22 µM; activation, negative = inhibition: at the top concentration
Method in brief: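 Cells were plated at 1500 per well in reduced-serum medium with 10% FBS and left 2 h. Compound in DMSO was then added for 24 h at 37 °C. Reporter signal was read by luminescence after 10 min with luciferase detection reagent.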
Potency is the fitted concentration of half-maximal effect; tags give direction and shape of the fitted curve.

Question: With `Cc1ccc(C(=O)Nc2cccc(O)c2)cc1S(=O)(=O)N1CCCCCC1` as the molecule, how does the Potency read?
Answer: inconclusive [activator, single point]

Question: With `Cc1ccc(O)c(C(=O)/C=C/c2ccc3c(c2)OCCO3)c1` as the molecule, how does the Potency read?
Answer: inconclusive [activator, single point]

Question: Which Potency does the source give for `CN(c1ccc(C(=O)Nc2ccc3c(c2)OCO3)cc1)S(C)(=O)=O` here?
Answer: active: 3.98 µM

Question: Which Potency does the source give for `O=C(c1ccc(Cl)cc1)N1CCn2c1nc1ccccc12` here?
Answer: inconclusive [activator, single point]

Question: Which Potency does the source give for `CSc1ccc(NC(=O)Nc2ccccc2C(N)=O)cc1` here?
Answer: inconclusive [activator, partial curve]

Question: For `Fc1ccccc1OCCSc1nc2ccccc2o1`, which Potency is on record?
Answer: inconclusive [activator, partial curve]

Question: For `CCc1ccc(NC(=O)c2ccccc2SC)cc1`, which Potency is on record?
Answer: inconclusive [activator, partial curve]

Question: With `COc1ccccc1Oc1ccc(N/C=C/C(=O)c2ccc(C)o2)cc1` as the molecule, how does the Potency read?
Answer: inconclusive [activator, single point]

Question: Which Potency does the source give for `CCn1c2ccccc2c2cc(NC(=O)N3CCOCC3)ccc21` here?
Answer: active: 3.55 µM

Question: With `Cc1ccc(C(=O)Nc2ccc(N3CCN(C)CC3)nc2)cc1` as the molecule, how does the Potency read?
Answer: inconclusive [activator, partial curve]

Question: For `O=c1oc(-c2ccc([N+](=O)[O-])cc2)nc2ccc(O)cc12`, which Potency is on record?
Answer: inconclusive [activator, single point]

Question: Which Potency does the source give for `COc1ccc(CC(=O)n2nc(-c3ccc(Cl)cc3)nc2NCc2ccco2)cc1` here?
Answer: active: 3.16 µM

Question: For `CCOc1ccc2nc(N3CCCC(C(=O)NCC4CCCO4)C3)sc2c1` (configuration not stated), which Potency is on record?
Answer: inconclusive [activator, partial curve]

Question: With `CCOC(=O)C1=C(N)OC2=C(C(=O)CC(C)(C)C2)C1c1ccco1` (configuration not stated) as the molecule, how does the Potency read?
Answer: inconclusive [activator, single point]

Question: Which Potency does the source give for `Cc1cc(NC(=O)c2cccs2)ncc1NC(=O)C(C)(C)C` here?
Answer: active: 1.41 µM

Question: Which Potency does the source give for `O=C(COc1ccc(Cl)cc1Cl)Nc1cccc(-c2ccc(N3CCOCC3)nn2)c1` here?
Answer: active: 1 µM

Question: Which Potency does the source give for `Cc1ccnc(NC(=O)CCCc2ccccc2)c1` here?
Answer: inconclusive [activator, partial curve]

Question: Which Potency does the source give for `COc1cccc(-c2ccc3c(N)c(C(=O)NC4CC4)sc3n2)c1` here?
Answer: inconclusive [activator, full curve]

Question: For `N#Cc1cc2c(nc1SCC(=O)Nc1sc3c(c1C#N)CCC3)CCC2`, which Potency is on record?
Answer: inconclusive [activator, single point]

Question: Which Potency does the source give for `CN(C)/C=C(\C#N)C(=O)N/N=C/c1ccc(Cl)cc1` here?
Answer: inconclusive [activator, partial curve]

Question: For `CCOc1ccc(NCc2nc3ccccc3n2CCOc2ccccc2)cc1`, which “activation, negative = inhibition” value is on record?
Answer: inactive: 25.3%

Question: Which Potency does the source give for `CS(=O)(=O)c1ccc2nc(NC(=O)c3ccccc3)sc2c1` here?
Answer: active: 0.501 µM

Question: For `FC(F)(F)c1ccc(NCc2ccccn2)nc1`, which Potency is on record?
Answer: inconclusive [activator, single point]

Question: Which “activation, negative = inhibition” value does the source give for `Cc1cc(C(=O)COC(=O)c2ccccc2Br)c(C)n1CC1CCCO1` (configuration not stated) here?
Answer: inactive: -33.8%

Question: With `Cc1c(NC(=O)c2ccco2)cccc1C(=O)NN1C(=O)c2ccccc2C1=O` as the molecule, how does the “activation, negative = inhibition” value read?
Answer: inactive: -2.6%

Question: For `Nn1c(SCc2ccccc2F)nnc1-c1ccncc1`, which Potency is on record?
Answer: inconclusive [activator, partial curve]

Question: With `COc1ccc2c(c1)O/C(=C\c1sccc1C)C2=O` as the molecule, how does the Potency read?
Answer: inconclusive [activator, partial curve]

Question: With `CCC(=O)Nc1c(-c2ccc3ccccc3c2)nc2ccccn12` as the molecule, how does the Potency read?
Answer: inconclusive [activator, single point]

Question: With `Cc1ccc(-c2nnc(N3CCN(C(=O)COc4ccccc4)CC3)c3ccccc23)cc1` as the molecule, how does the “activation, negative = inhibition” value read?
Answer: inactive: -2.55%

Question: With `O=C(c1cc(-c2ccc(O)cc2)on1)N1CCCc2ccccc21` as the molecule, how does the “activation, negative = inhibition” value read?
Answer: inactive: 17%

Question: Which Potency does the source give for `COc1ccccc1CCNC(=O)C1CCN(C(=O)/C=C/c2ccccc2)CC1` here?
Answer: inconclusive [activator, partial curve]

Question: With `Cc1cc(NC(=O)c2noc3c2CCc2ccccc2-3)no1` as the molecule, how does the Potency read?
Answer: inconclusive [activator, single point]

Question: With `O=C(Nc1nc2ccccc2[nH]1)c1ccccc1` as the molecule, how does the Potency read?
Answer: active: 1.58 µM

Question: With `COc1cccc(NC(=O)Nc2ccc(C)c(Cl)c2)c1` as the molecule, how does the Potency read?
Answer: active: 2.82 µM

Question: For `O=S(=O)(Nc1ccc2nc(-c3ccco3)[nH]c2c1)c1ccccc1`, which Potency is on record?
Answer: inconclusive [activator, partial curve]

Question: With `COc1cccc(C(c2nnnn2CC2CCCO2)N2CCN(C(=O)c3ccco3)CC2)c1OC` (configuration not stated) as the molecule, how does the “activation, negative = inhibition” value read?
Answer: inactive: -4.21%

Question: Which “activation, negative = inhibition” value does the source give for `COc1ccc(-c2csc3nc(-c4cccnc4)nc(N4CCC(C(N)=O)CC4)c23)cc1OC` here?
Answer: inactive: -2.71%

Question: Which Potency does the source give for `COc1ccc(C(=O)N2CCCC(CCC(=O)NCc3ccc(F)c(F)c3)C2)o1` (configuration not stated) here?
Answer: inconclusive [activator, partial curve]

Question: Which Potency does the source give for `CC(C)(C)n1ncc2c(=O)n(CC(=O)NCc3ccccc3)cnc21` here?
Answer: inconclusive [activator, full curve, poor fit]

Question: Which Potency does the source give for `CCN(CC)C(=O)c1sc2nc(-c3ccc(OC)cc3)cn2c1C` here?
Answer: inconclusive [activator, partial curve]

Question: For `Brc1cccc(-c2nc(-c3ccncc3)no2)c1`, which Potency is on record?
Answer: active: 5.01 µM

Question: Which Potency does the source give for `Cc1cc(-c2nnc(CCC(=O)NC(c3ccccc3)c3ccccc3)o2)no1` here?
Answer: inconclusive [activator, partial curve]

Question: For `COc1cccc(/C=N/NC(=O)CNC(=O)c2ccco2)c1O`, which “activation, negative = inhibition” value is on record?
Answer: inactive: -1.27%

Question: Which Potency does the source give for `Cc1[nH]n(-c2ccc([N+](=O)[O-])cc2)c(=O)c1C=NCC1CCCO1` (configuration not stated) here?
Answer: inconclusive [activator, partial curve]

Question: For `c1ccc(-c2noc(-c3ccc4c(c3)OCO4)n2)nc1`, which Potency is on record?
Answer: inconclusive [activator, full curve, poor fit]

Question: Which Potency does the source give for `Cn1ccc2cc3c(cc21)CCN3C(=O)Nc1cccnc1` here?
Answer: active: 3.16 µM

Question: Which Potency does the source give for `Cc1ccc(Nc2nc(C)cs2)cc1` here?
Answer: inconclusive [activator, single point]
